The record followed here is PubChem BioAssay AID463173 (ICCB-Longwood Screening Facility, Harvard Medical School, 2010).

In all, about 52,000 compounds went through this assay and about 4,300 (8.3%) were called active. Cut-off read from the data, not from the text of the source: active = survival mostly below about 52% (no sharp cut-off); inactive = mostly above about 56%. Some of the results follow.

The test relates to DeltatarO mutant. Kind of test: growth inhibition of S. aureus wild type versus tarO mutant, primary screen, teichoic acid synthesis inhibitors, RN4220, OD600 (AID 463173). To be noted: OD600, 18 h, stronger effect = lower value, screened at 18.75 µg/mL (by protocol).
For the molecule `COc1ccc(OC)c(NC(=O)c2cc(S(=O)(=O)NCCc3ccc(Cl)cc3)ccc2F)c1`, the survival is inactive: 70%. With `CCC(C)NC(=O)Cn1c(=O)n(-c2ccc(C)c(C)c2)c(=O)c2c3c(sc21)CCCCC3` (stereo unspecified), the survival was inactive: 80%. Under `CCCCc1nn2c(=O)cc(COC(=O)C3CCCCC3)nc2s1` stands inactive: 75%. The result for `Cc1nc2nc(SCC(=O)NC3CCC(C)CC3)nn2c(C)c1Cc1ccccc1` (stereo unspecified) reads inactive: 92%; that for `CCOc1ccc(OCC)c(NC(=O)c2ccc(-c3ccccc3)s2)c1`, active: 27%. Under `N#Cc1ccc(N2CCOCC2)cc1C#N` stands inactive: 78%; under `CCOc1ccc(CCNC(=O)c2sc3ncccc3c2-n2cccc2)cc1OCC`, inactive: 63%. As to `COC(=O)c1ccc(-c2nc3cc(NC(C)=O)ccc3o2)cc1`, the survival was inactive: 149%. Under `CCOc1ccc(NC(=O)c2ccc(F)c(S(=O)(=O)N(CC)Cc3ccccc3)c2)cc1` stands inactive: 78%. As for `O=C(CCC1N=C2c3ccccc3N=C(SCc3cccc(F)c3)N2C1=O)NCc1cccs1` (stereo unspecified), the survival was inactive: 83%. The result for `CCOC(=O)c1scc(-c2ccc(C)cc2)c1S(=O)(=O)N1CCN(c2ccccc2F)CC1` reads inactive: 109%. On to `Cc1ccc(Cl)cc1N1CCN(C(=O)CCNS(=O)(=O)c2ccc3c(c2)CCN3C(=O)C2CC2)CC1`, for which the survival is inactive: 77%. The result for `COCCNC(=O)c1cc2ccccc2o1` reads inactive: 104%; that for `CCCCCSc1ncnc2c1sc1nc(N3CCOCC3)c3c(c12)CCCC3`, inactive: 69%; that for `Cc1ccc(NC(=O)NCc2cccn2Cc2ccccc2)c(C)c1`, inactive: 76%.

With `C1=C(C(c2nnnn2C2CCCCC2)N2CCCCC2)COc2ccccc21` (stereo unspecified), the survival is inactive: 86%. Under `CC(C)c1ccc(S(=O)(=O)c2nnn3c2nc(N2CCCCC2)c2sccc23)cc1` stands inactive: 49%; under `COc1cccc(C(=O)Nc2ccc(-c3cc(C(F)(F)F)nn3-c3ccccc3)cc2)c1`, inactive: 46%. On to `COc1ccc(COC(=O)C2=C(C)NC3(O)c4ccccc4C(=O)C23O)cc1` (stereo unspecified), for which the survival is inactive: 90%.

Take `Cc1ccc(C)c(Cn2c(-c3cccs3)nc3ccccc32)c1`: the survival was active: -3%.

On to `Cc1ccc(C)c(CN2C(=O)N(c3cc(Cl)ccc3C)S(=O)(=O)c3ccccc32)c1`, for which the survival is inactive: 83%. Turning to `CC(C)Cc1ccc(S(=O)(=O)Nc2cc3c(cc2N2CCOCC2)n(C)c(=O)c(=O)n3C)cc1`, the survival is inactive: 79%. Under `CC(=O)c1cccc(NC(=O)c2cc(-c3ccc(Cl)s3)nc3ccccc23)c1` stands inactive: 77%. Under `CCn1c(CNC(=O)c2ccccc2)n[nH]c1=S` stands inactive: 86%; under `COc1ccc(NC(=O)CC2C(=O)N(c3cccc(C)c3)C(=O)N2C2CCCCC2)cc1` (stereo unspecified), inactive: 69%. Take `COc1ccc(-c2nnc(SCC(=O)Nc3ccc(C(C)C)cc3)nc2-c2ccc(OC)c(OC)c2)cc1OC`: the survival was inactive: 86%. For the molecule `CCNc1nc2n(c(=O)n1)CCN2CC`, the survival was inactive: 86%. For the molecule `Cc1cc(/C=C(\C#N)C(=O)NCc2cccs2)c(C)n1C1CCCC1`, the survival was inactive: 117%. The result for `NNC(=O)CCc1nc2ccccc2[nH]1` reads inactive: 67%; that for `Cc1cccc(N2CCN(C(=O)c3cn(CC(C)C)c(=O)c4c3c3ccccc3n4C)CC2)c1C`, inactive: 95%. Under `COc1ccc(-c2ccc(NS(=O)(=O)c3ccc(C(C)=O)cc3)cc2)nn1` stands inactive: 67%; under `Cc1ccc(NS(=O)(=O)c2c(C)[nH]c(=O)[nH]c2=O)c(C)c1`, inactive: 46%; under `CC1CC(C)CN(C(=O)Cn2c(SCC(=O)N(C(C)C)C(C)C)nc3ccccc32)C1` (stereo unspecified), inactive: 97%. The result for `COc1cccc(N2CC(NC(=O)CCCc3ccccc3)CC2=O)c1` (stereo unspecified) reads inactive: 69%; that for `Cc1ccc(-c2noc(CNC(=O)c3ccc(Br)o3)n2)cc1`, inactive: 75%. `COc1cc(S(=O)(=O)N2CCN(C)CC2)c(C)cc1C`: the survival was inactive: 78%. Under `CCC(C(=O)Nc1c(C)cc(C)cc1C)n1c(=O)c(-c2ccccc2NC(C)=O)nc2ccccc21` (stereo unspecified) stands inactive: 88%; under `CN(Cc1ccccc1)S(=O)(=O)c1cc(Br)cc2c1N(C(=O)C1CC1)CC2`, active: 34%; under `COc1ccc(NC(=O)CSc2nnc(NC(=O)Nc3ccc(OC)cc3)s2)cc1`, inactive: 87%.

As for `Oc1cc2ccsc2c2ccccc12`, the survival is active: 9%. `CCN(CCCNC(=O)CN1N=C(c2ccc(OC)cc2)CCC1=O)c1cccc(C)c1`: the survival is inactive: 123%. Regarding `CCCCN(C)CCCNC(=O)c1cc(-c2ccc(Br)s2)nc2ccccc12`, the survival was inactive: 33%. `COc1cccc(Nc2sc(C(=O)c3ccc(F)cc3)c(N)c2C(=O)NCc2ccc(Cl)cc2)c1`: the survival was active: 8%.

With `Cc1cccc(NC(=O)CCCCCn2c(=O)[nH]c3ccsc3c2=O)c1`, the survival is active: 33%. The result for `CC(C)c1ccc(CN(Cc2ccco2)c2cnc(S(C)(=O)=O)nc2C(=O)Nc2ccc(F)cc2)cc1` reads inactive: 49%; that for `Cc1ccc(C(=O)Nc2cc3nn(-c4ccccc4)nc3cc2Cl)c(C)c1`, inactive: 78%. The result for `N#C/C(=C\c1ccc(Cl)cc1Cl)c1nc(-c2cccc(Cl)c2)cs1` reads inactive: 79%; that for `CCOc1ccccc1N(CC(=O)NCCSc1ccccc1)S(=O)(=O)c1ccccc1`, inactive: 55%; that for `COc1ccccc1Cc1nc2ccccc2nc1SCC(=O)N(C)c1ccc(F)cc1`, inactive: 83%. On to `COc1ccccc1C(=O)Nc1ccncc1`, for which the survival was inactive: 78%. On to `Cc1cccc(N2CCN(C(=O)Nc3cn(CC(C)C)c(=O)c4ccccc34)CC2)c1C`, for which the survival was inactive: 69%. The result for `Cc1nnc(N2CCC(C(=O)NCCc3ccccc3Cl)CC2)c2nn(-c3ccccc3)c(C)c12` reads inactive: 123%. For `CCOc1ccccc1CNC(=O)C1CCN(c2nn3cc(-c4ccc(F)cc4)nc3s2)CC1`, the survival was inactive: 67%. Consider `CCCCCCOc1ccc(C2C(=O)N(C3CCCCC3)CC(=O)N2CCC)cc1` (stereo unspecified), for which the survival is inactive: 94%. Under `Cc1cccc(N2CCN(C(=O)c3cccc(-n4c(C)nc5cccnc54)c3)CC2)c1C` stands inactive: 104%; under `Cc1cc(C)c(C(=O)O)c(=O)[nH]1`, inactive: 60%; under `COc1ccc(Cn2c(=O)c3oc4ccccc4c3n(Cc3cccc(C(F)(F)F)c3)c2=O)cc1`, inactive: 73%. For `Cc1nn(-c2ccccc2)c2c1N(CC(=O)N1CCN(c3cccc(Cl)c3)CC1)C(=O)CS2`, the survival was inactive: 75%. For the molecule `O=C(c1ccc2c(=O)n(CCc3ccccc3)c(=O)[nH]c2c1)N1CCN(c2ccc(F)cc2)CC1`, the survival was inactive: 111%. For `COc1cccc(N2CC(NC(=O)c3ccco3)CC2=O)c1` (stereo unspecified), the survival is active: 37%.

For the molecule `COc1ccc(N=C2SC(C(=O)Nc3ccccc3)CC(=O)N2C)cc1` (stereo unspecified), the survival is inactive: 91%.

Regarding `CCc1nn(CC(=O)NCCCN(CC(C)C)CC(C)C)c(=O)c2cc3sc(C)cc3n12`, the survival was inactive: 133%. The result for `O=C(O)c1ccc(/C=N/n2cnnc2)cc1` reads inactive: 111%; that for `CCOC(=O)/C(C#N)=C/c1ccc2c(c1)c1ccccc1n2CC`, inactive: 91%; that for `CCCCN(C)C(=O)C1CCCN(c2ncnc3onc(C)c23)C1` (stereo unspecified), inactive: 113%.

Take `CCN(CC)c1cc2c(cc1F)c(=O)c(S(=O)(=O)c1ccc(OC)cc1)cn2CC`: the survival is inactive: 102%. Take `CCOCCCNc1ccc(-c2ccccc2)nn1`: the survival was inactive: 97%. The result for `CCOc1ccc(CNC(=O)C2CCCN(S(=O)(=O)c3ccc4c(ccn4C)c3)C2)cc1` (stereo unspecified) reads inactive: 92%; that for `Cc1ccccc1-n1c(SCc2ccc(Cl)cc2)nc2[nH]ncc2c1=O`, inactive: 92%; that for `COc1cccc(N2CCN(C(=O)CCc3c(C)nc4c(c3C)c(=O)n(C)c(=O)n4C)CC2)c1`, inactive: 98%.

Consider `CCC(C)NC(=O)c1ccc2c(c1)N(Cc1ccccc1)C(=O)c1ccccc1S2` (stereo unspecified), for which the survival is inactive: 92%. The result for `CCOC(=O)c1cccnc1SCC(=O)Nc1ccc(C)cc1C` reads inactive: 79%; that for `Cc1ccc2c(c1)-c1c(cnc3cc(-c4ccccc4)nn13)CO2`, inactive: 69%; that for `CCCCc1ccc(NC(=O)c2ccc(=O)n(Cc3cccc(C)c3)c2)cc1`, inactive: 78%.

Regarding `CN(C)CCNC(=O)c1ccc2c(=O)n3c(nc2c1)CCCCC3`, the survival is inactive: 125%. Under `COc1ccc(-c2nc(C)c(CCNS(=O)(=O)c3cc(C)c(C)cc3C)s2)cc1` stands inactive: 72%; under `O=C(NCCc1ccccc1)c1nnc(Cc2cccc(F)c2)o1`, inactive: 106%; under `COc1ccc(-c2nc(CN3CCC(C(=O)NCc4ccccc4)CC3)c(C)o2)cc1OC`, inactive: 104%.

As for `Cn1nnc2c(N3CCN(c4ccccc4Cl)CC3)ncnc21`, the survival is inactive: 69%. With `COc1ccc(-c2c3c(=O)n(C)c(=O)n(C)c3c3c(C)nc4ccccc4n23)cc1`, the survival was inactive: 79%.

With `CC(C)(C)c1ccc(-c2nc(SCCCOc3ccccc3)n3[nH]c(=O)cc3n2)cc1`, the survival was inactive: 70%. For the molecule `CCOC(=O)Cn1c(=O)n(-c2ccccc2OC)c2nc(-c3cccc(F)c3)nc(C(N)=O)c21`, the survival is inactive: 64%. Under `Cc1ccc(-c2nnc(SCc3cccc(C#N)c3)o2)cc1` stands inactive: 62%. Take `CCOC(=O)c1ccccc1NC(=O)N(C(C)C)C1CCN(C(C)=O)CC1`: the survival is inactive: 73%. Consider `CCOC(=O)C1CCN(C(=O)Cn2c(=O)oc3cc(S(=O)(=O)N4CCC(C)CC4)ccc32)CC1`, for which the survival is inactive: 133%. Take `Cc1ccc(Cn2nnnc2CN2CCC(NC(=O)C(C)(C)C)CC2)cc1`: the survival was inactive: 81%.

`CC(=O)N1CCc2c(sc3c2c(=O)n(CCc2ccccc2)c(=O)n3Cc2ccc(Cl)cc2)C1`: the survival is inactive: 70%. With `Cc1ccccc1NC(=O)CSc1nc2c(c(=O)n(C)c(=O)n2C)n1Cc1ccccc1F`, the survival was inactive: 56%.

`O=C(C1CCCCC1)N1CCN(c2ncnc3c2cnn3-c2ccccc2)CC1`: the survival is inactive: 101%.

`Cc1cc2c(cc1S(=O)(=O)N1CCCCC1)OCC(=O)N2`: the survival is inactive: 106%. Under `CCOCCCNc1ncnc2c1cnn2-c1ccc(C)c(C)c1` stands inactive: 84%.
